{
  "source": "PubChem BioAssay AID1347120",
  "about": "(National Center for Advancing Translational Sciences (NCATS), 2019)",
  "note": "Hit rate of the full screen: of about 390,000 compounds, about 930 (0.24%) were called active. Inconclusive results, whose numbers are uncertain, are shown with a selection of clear calls. Calls follow the shape of the dose curve; as a rule, active = well fitted activation curve with a large enough effect; inconclusive = small, poorly fitted or top-dose-only effect; inactive = no such curve, though single readings can be large or run the other way. Potencies beside an inconclusive call are fits to weak or partial responses and may not hold up. Potency is read from the fitted curve at half-maximal effect; tags tell the direction and shape of the fitted curve.",
  "data": [
    {"experiment": "qHTS for Suppressors of FUS Proteinopathy: Primary screen using FUS-linked yeast assay; also: nearly all actives have a fitted effect of over 55% in size;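 as to growth rescue (activation): plate controls were DMSO vehicle for no effect and reference control for full effect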", "settings": "S. cerevisiae FUS-expressing, OD600, 24 h; Potency: growth rescue; growth rescue (activation): at 76.6 µM (top of the series)", "summary_of_the_method": "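Compound concentration series was pinned onto galactose-induced FUS-expressing yeast seeded at OD 0.005. Plates sat 24hr at 30C; absorbance at 600 nm gave growth. DMSO served as background control.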", "values": [
      {"smiles": "O=C(O)CSCC(=O)N1N=C2/C(=C/c3ccccc3)CCCC2C1c1ccccc1", "note": "(centres undefined)", "Potency": "inconclusive: 22.4 µM [activator, partial curve, poor fit]"},
      {"smiles": "CCOC(=O)c1ccc(NC(=O)c2c(NCc3cc(OC)ccc3OC)sc3c2CCC3)cc1", "Potency": "inconclusive: 39.8 µM [activator, single point]"},
      {"smiles": "CCCc1c(-c2ccc(F)cc2F)ncn1Cc1cccc(-c2ccccc2)c1", "Potency": "inconclusive: 12.6 µM [activator, partial curve, poor fit]"},
      {"smiles": "C/C(=N\\NC(=O)COc1ccccc1[N+](=O)[O-])c1cccc(NC(=O)c2ccncc2)c1", "growth rescue (activation)": "inactive: 13.6%"},
      {"smiles": "O=C(c1ccc2c(=O)n(Cc3ccco3)c(=S)[nH]c2c1)N1CCN(Cc2ccccc2)CC1", "Potency": "inconclusive: 39.8 µM [activator, single point]"},
      {"smiles": "COc1ccc(CC(=O)NC(C)c2nnc(SCC(=O)Nc3cc(C)ccc3OC)n2C)cc1", "note": "(centres undefined)", "growth rescue (activation)": "inactive: 12.8%"},
      {"smiles": "CC(C)[C@H](NC(=O)[C@@H]1CCCN1)C(=O)N1CCC2CCN(S(=O)(=O)c3ccccc3)CC21", "note": "(some centres undefined)", "growth rescue (activation)": "inactive: -18.8%"},
      {"smiles": "COC(=O)C[C@H]1CC[C@@H]2[C@H](COc3ccc(NC(=O)NCc4ccccc4)cc3C(=O)N2C)O1", "growth rescue (activation)": "inactive: -8.33%"},
      {"smiles": "Cc1oc2c(CN3CCCCC3)c(O)ccc2c(=O)c1-c1ccc(Br)cc1", "growth rescue (activation)": "inactive: 6.4%"},
      {"smiles": "O=C(N/N=C/c1ccc(O)cc1O)c1ccc(CN2C(=O)c3cccc4cccc2c34)cc1", "Potency": "inconclusive: 14.1 µM [activator, partial curve, poor fit]"},
      {"smiles": "O=C1NC[C@H](CCCCN2C[C@H](Cc3ccc(O)cc3)N(CCc3ccccc3)C(=O)C2=O)N(CC2CCCCC2)C1=O", "growth rescue (activation)": "inactive: 18.8%"},
      {"smiles": "COc1ccc(C(=O)NCCN2C(=O)C3C4C=CC(C4)C3C2=O)cc1OC", "note": "(centres undefined)", "growth rescue (activation)": "inactive: -25.4%"},
      {"smiles": "O=C(O)C1CC=CCC1C(=O)Nc1ccc(N2CCN(Cc3ccccc3)CC2)cc1", "note": "(centres undefined)", "Potency": "inconclusive: 4.47 µM [activator, full curve]"},
      {"smiles": "CC(=O)Nc1ccc(S(=O)(=O)N(Cc2ccccc2)Cc2ccccc2)cc1", "Potency": "inconclusive: 35.5 µM [activator, single point]"},
      {"smiles": "COc1cccc(-c2ccc3c(N)c(C(=O)Nc4ccccc4C)sc3n2)c1", "Potency": "inconclusive: 39.8 µM [activator, single point]"},
      {"smiles": "CC(C)c1ccc2[nH]c3nc(SCC(=O)NC4CC4)nnc3c2c1", "Potency": "inconclusive: 39.8 µM [activator, partial curve, poor fit]"},
      {"smiles": "O=C(c1ccc(Cl)cc1)c1cn(Cc2ccccc2)c2cc3c(cc2c1=O)OCCO3", "Potency": "inconclusive: 28.2 µM [activator, single point]"},
      {"smiles": "Cc1ccc(NC(=O)C2CCCN(S(=O)(=O)c3ccc4c(c3)CCCC(=O)N4)C2)cc1Cl", "note": "(centres undefined)", "Potency": "inconclusive: 15.8 µM [activator, partial curve]"},
      {"smiles": "COc1ccc(N(C)C(=O)c2cc3c(s2)-c2ccccc2OC3)cc1", "Potency": "inconclusive: 31.6 µM [activator, single point]"},
      {"smiles": "COC(=O)Cn1nc(-c2ccccc2)c2cc(Cl)ccc21", "Potency": "inconclusive: 39.8 µM [activator, partial curve, poor fit]"},
      {"smiles": "CCC(C(=O)NCCc1ccc(Cl)cc1)n1ccc2cc(S(=O)(=O)N3CCCCC3)ccc21", "note": "(centres undefined)", "Potency": "inconclusive: 28.2 µM [activator, single point]"},
      {"smiles": "O=C(NCc1ccc(Cl)cc1)c1ccc2c(c1)N(Cc1ccccc1F)C(=O)c1ccccc1S2=O", "note": "(centres undefined)", "Potency": "active: 28.2 µM"},
      {"smiles": "O=C(COC(=O)c1c2c(nc3ccccc13)CCCCC2)NCc1ccc2c(c1)OCO2", "Potency": "inconclusive: 35.5 µM [activator, partial curve, poor fit]"},
      {"smiles": "CC1CCCCN1S(=O)(=O)c1ccc(C(=O)N(CCCN(C)C)c2nc3ccc(Br)cc3s2)cc1", "note": "(centres undefined)", "Potency": "inconclusive: 25.1 µM [activator, partial curve]"},
      {"smiles": "COc1cccc(CNc2ccccc2O)c1OCc1ccccc1F", "Potency": "active: 20 µM"},
      {"smiles": "COc1ccc(C(=O)N2CCN(c3nc4c(C)c(Cl)ccc4s3)CC2)c(OC)c1", "growth rescue (activation)": "inactive: 2.76%"},
      {"smiles": "CCOc1ccc(NC(=O)CN(C)S(=O)(=O)c2ccc3[nH]c4c(c3c2)CCCC4)cc1", "Potency": "inconclusive: 31.6 µM [activator, single point]"},
      {"smiles": "CC1CCCC(NC(=O)CSc2nnc(-c3cccnc3)n2N)C1C", "note": "(centres undefined)", "Potency": "inconclusive: 11.2 µM [activator, partial curve, poor fit]"},
      {"smiles": "CC(C)(C)c1ccc(-c2nnc3sc(COc4ccccc4)nn23)cc1", "growth rescue (activation)": "inactive: 8.2%"},
      {"smiles": "CC(C)CCNC(=O)c1sc2ccc(S(=O)(=O)N3CCCCC3)cc2c1N", "Potency": "inconclusive: 25.1 µM [activator, single point]"},
      {"smiles": "CC(=O)N1c2ccc(S(=O)(=O)NCC3CCC(C(=O)Nc4ccc(F)cc4)CC3)cc2CC1C", "note": "(centres undefined)", "Potency": "inconclusive: 35.5 µM [activator, single point]"},
      {"smiles": "CCn1cc([N+](=O)[O-])c(C(=O)N2N=C(c3ccc4ccccc4c3)CC2c2cc(Br)ccc2O)n1", "note": "(centres undefined)", "Potency": "inconclusive: 28.2 µM [activator, single point]"},
      {"smiles": "Cc1ccc(Cn2cccc(NS(C)(=O)=O)c2=O)cc1", "growth rescue (activation)": "inactive: -1.58%"},
      {"smiles": "C=CC[C@@H](Cc1ccc(F)cc1)C(=O)OC[C@@H]1CCCN1C(=O)[C@@H](CC=C)CC(=O)N(CCO)Cc1ccccc1", "Potency": "inconclusive: 22.4 µM [activator, partial curve, poor fit]"},
      {"smiles": "CCc1ccc(NC(=O)N(Cc2cn(CC)c3ccccc23)C2CCCCC2)cc1", "growth rescue (activation)": "inactive: 18.3%"},
      {"smiles": "Cc1ccc(C(=O)N2CCC3(CC2)Oc2ccc(F)cc2C(=O)C32CC(c3ccccc3)=NO2)s1", "note": "(centres undefined)", "Potency": "inconclusive: 20 µM [activator, partial curve]"},
      {"smiles": "Cc1ccc(C(=O)N(c2ccccc2)C2CC(C)N(C(=O)c3ccco3)c3ccccc32)cc1", "note": "(centres undefined)", "Potency": "inconclusive: 15.8 µM [activator, partial curve, poor fit]"},
      {"smiles": "Nc1c(-c2ccccc2)cnn1-c1cccc([N+](=O)[O-])c1", "growth rescue (activation)": "inactive: -3.04%"},
      {"smiles": "O=[N+]([O-])c1ccc2c(c1)nc1n2CCN(c2ccccc2)C1", "Potency": "inconclusive: 50.1 µM [activator, single point]"},
      {"smiles": "Cc1ccc(-c2cn3cccnc3n2)cc1NC(=O)Cc1ccccc1", "growth rescue (activation)": "inactive: -13.6%"},
      {"smiles": "O=C1c2[nH]nc(-c3ccccc3O)c2C(c2ccc(Cl)cc2)N1CCc1ccccc1", "note": "(centres undefined)", "growth rescue (activation)": "inactive: 43.6%"},
      {"smiles": "Cn1c2ccccc2c2cc(C(=O)O)ccc21", "growth rescue (activation)": "inactive: -13%"},
      {"smiles": "c1ccc(C2Nc3ccccc3C3OCCCC23)cc1", "note": "(centres undefined)", "growth rescue (activation)": "inactive: 13.5%"},
      {"smiles": "CCOc1ccccc1Nc1ncnc2c1c(-c1ccccc1)cn2-c1ccc(OC)cc1", "Potency": "inconclusive: 50.1 µM [activator, single point]"},
      {"smiles": "Cn1c(=O)cc(OCC(=O)N2CCN(c3ccc(F)cc3)CC2)c2ccccc21", "Potency": "inactive"},
      {"smiles": "CC(Sc1nnc(NCc2ccccc2)s1)C(=O)Nc1ccc2c(c1)C(=O)c1ccccc1C2=O", "note": "(centres undefined)", "Potency": "inconclusive: 3.55 µM [activator, partial curve, poor fit]"},
      {"smiles": "COc1ccc(C2=C(C)C(=O)N(Cc3ccc(C(=O)Nc4ccc(C)c(C)c4)cc3)S2(=O)=O)cc1", "Potency": "inconclusive: 10 µM [activator, partial curve, poor fit]"},
      {"smiles": "Cc1ccc(-n2c(SCc3cn4ccsc4n3)nc3ccccc3c2=O)cc1", "Potency": "inconclusive: 8.91 µM [activator, partial curve]"},
      {"smiles": "CCOC(=O)[C@@]12CCCC3=C1N(CCC3)C(=O)[C@H]2CC(=O)NCCc1ccccc1OC", "growth rescue (activation)": "inactive: 9.57%"},
      {"smiles": "COc1ccccc1C1=Nc2cccc3cccc(c23)N1", "Potency": "inconclusive: 12.6 µM [activator, partial curve, poor fit]"},
      {"smiles": "CC(C)(C)OC(=O)N(Cc1ccccc1)Cc1ccccc1OCc1ccc(NC(=O)C2CCC2)cc1", "Potency": "inconclusive: 15.8 µM [activator, single point]"},
      {"smiles": "COc1cccc(-c2nc(SCC(=O)NC3CCCC3)c(-c3ccc(F)cc3)[nH]2)c1", "growth rescue (activation)": "inactive: -16.6%"},
      {"smiles": "O=C(NCc1ccc2c(c1)OCO2)c1cc(-c2ccccc2Cl)on1", "Potency": "inconclusive: 20 µM [activator, partial curve, poor fit]"},
      {"smiles": "CCOc1ccc(C(=O)Nc2ccc3nc(SCC(=O)N(C)c4ccccc4)sc3c2)cc1", "growth rescue (activation)": "inactive: 5.33%"},
      {"smiles": "COc1cc(C(=O)NCC(c2ccccc2)N(C)C)ccc1OCc1c(C)noc1C", "note": "(centres undefined)", "growth rescue (activation)": "inactive: -11.7%"},
      {"smiles": "CCOC(=O)c1cc(-c2ccc(OC)cc2)n(CCC(=O)Nc2ccc(OC)cc2OC)c1C", "Potency": "inconclusive: 17.8 µM [activator, partial curve, poor fit]"},
      {"smiles": "CCOc1ccc(N(CC(=O)N2CCN(c3ccc(F)cc3)CC2)S(=O)(=O)c2c(C)noc2C)cc1", "Potency": "inconclusive: 39.8 µM [activator, single point]"},
      {"smiles": "Cc1cc(C)cc(NC(=O)CCS(=O)(=O)c2ccc3c(c2)oc(=O)n3C)c1", "growth rescue (activation)": "inactive: 0.538%"},
      {"smiles": "COC(=O)c1ccc2c(=O)n(CCCCCC(=O)NC(C)C)c(=O)[nH]c2c1", "Potency": "inconclusive: 35.5 µM [activator, single point]"},
      {"smiles": "COc1cccc(C(=O)Nc2ccc(-c3nnc(-c4ccco4)o3)cc2)c1", "growth rescue (activation)": "inactive: 18.1%"},
      {"smiles": "O=C(CS(=O)(=O)Cc1ccccc1)Nc1nc2c(s1)CCCC2", "growth rescue (activation)": "inactive: 12.1%"},
      {"smiles": "C[C@@H]1CN([C@H](C)CO)C(=O)c2cc(NC(=O)Nc3ccc(F)cc3)ccc2O[C@@H](C)CCCCO[C@H]1CN(C)S(=O)(=O)c1ccc(Cl)cc1", "Potency": "inconclusive: 20 µM [activator, partial curve, poor fit]"},
      {"smiles": "CN(C)S(=O)(=O)c1ccc(C(=O)Nc2ccc(CN3CCCC3)cc2)cc1", "Potency": "inconclusive: 25.1 µM [activator, partial curve, poor fit]"},
      {"smiles": "Cc1c(/C(O)=C2/C(=O)C(=O)N(Cc3cccnc3)C2c2cccs2)cnn1-c1ccccc1", "note": "(centres undefined)", "Potency": "inconclusive: 11.2 µM [activator, partial curve]"}
    ]}
  ]
}
